From PubChem BioAssay AID1508623 (National Center for Advancing Translational Sciences (NCATS), 2021) come the findings set out here.

The campaign covered roughly 48,000 compounds. About 450 (0.94%) were called active. Roughly 19% stayed inconclusive and do not appear here. The call rests on the fitted dose curve; in most records, active means well fitted inhibition curve with a large enough effect; inconclusive means small, poorly fitted or top-dose-only effect; inactive means no such curve, though single readings can be large or run the other way. Some of the results follow.

The nature of this assay: Primary qHTS for Identification of Small Molecule Inhibitors of Huntingtin Promoter Activity. Further: nearly all actives have a fitted effect of over 50% in size. The note with it: HEK293 HTT promoter firefly luciferase reporter (activity 0% = vehicle and -100% = no light), 24 h; series mostly up to 57.5 µM; activity change, negative = inhibition: at the top concentration. In short, it runs like this:
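Luminescence was read after Dual-Glo reagent and a 10 min room-temperature incubation. Values were normalized to vehicle (0% activity) and zero RLU (-100% activity). Reporter HEK293 cells had been exposed to compounds (up to 57.5 uM final) for 24 h.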
A general note: In qHTS, concentration-response curves come from the screen itself.
Consider `O=C(NCC(c1ccc2c(c1)OCO2)N1CCOCC1)C(=O)Nc1ccc(Cl)cc1` (stereo not drawn), for which the “activity change, negative = inhibition” value was inactive: -26.9%. In the case of `Cc1ccccc1OCCSc1nnc(-c2ccc([N+](=O)[O-])cc2)o1`, the “activity change, negative = inhibition” value is inactive: 2.04%.

Consider `CC(=O)CC(c1ccccc1)c1c(O)c2ccccc2oc1=O` (stereo not drawn), for which the activity change, negative = inhibition entry was “inactive”.

On to `Oc1cccc(-c2nc(-c3cccs3)c(-c3cccs3)[nH]2)c1`, for which the “activity change, negative = inhibition” value was inactive: -11.6%. Consider `COc1ccccc1NC(=O)c1cc2c(n(-c3ccc(C)cc3)c1=O)CC(C)(C)CC2=O`, for which the “activity change, negative = inhibition” value is inactive: -8.01%.

Turning to `CCc1cc2c(cc3c(=O)n(CC(=O)NC(C)C)nc(CC)n32)s1`, the “activity change, negative = inhibition” value is inactive: 0.408%. For the compound `COc1ccc(CNC(=O)CSCc2ccc(C)cc2)c(OC)c1`, the “activity change, negative = inhibition” value is inactive: -20.2%. Consider `CCC1CCCCN1CCCNC(=O)c1sc2nc(C)cc(C)c2c1-n1cccc1` (stereo not drawn), for which the “activity change, negative = inhibition” value is inactive: 0.594%. As for `NS(=O)(=O)c1cc2c(cc1Cl)NC(C1CC3C=CC1C3)NS2(=O)=O` (stereo not drawn), the figure is inactive: 0.0449%. `O=C1NS(=O)(=O)c2ccccc21`: the “activity change, negative = inhibition” value is inactive: 0.551%. As for `COc1ccc(CNC(=O)Cn2c(=O)n3nc(-c4cccc(F)c4)nc3c3ccccc32)cc1OC`, the “activity change, negative = inhibition” value was inactive: 2.47%. In the case of `COc1ccc(CNC(=O)C2=Cc3cccc(OC)c3OC2)cc1OC`, the “activity change, negative = inhibition” value was inactive: -24.4%. `O=C(Nc1ccc(F)cc1F)c1cc(CN2CCOCC2)on1`: the “activity change, negative = inhibition” value is inactive: 27.9%. `CCc1ccc(CNC(=O)c2ccc(-n3c(C)cc4c3CCC(C)C4)cc2)cc1` (stereo not drawn): the “activity change, negative = inhibition” value was inactive: 3.82%. `COc1cccc(C(c2sc3nc(-c4ccco4)nn3c2O)N2CCC3(CC2)OCCO3)c1` (stereo not drawn): the “activity change, negative = inhibition” value is inactive: 0%. `COc1cc(Br)c(C2CC(=O)Nc3cc4c(cc32)OCCO4)cc1OC` (stereo not drawn): the “activity change, negative = inhibition” value was inactive: -35.4%.

`Cc1cccc(NC(=O)C(Cc2ccccc2)N2Cc3ccccc3C2=O)c1C` (stereo not drawn): the “activity change, negative = inhibition” value is inactive: -27.8%. Consider `CCc1nn(CC(=O)NCCN(CC(C)C)CC(C)C)c(=O)c2cc3sc(C)cc3n12`, for which the “activity change, negative = inhibition” value was inactive: -18.9%. For `COc1ccc(-c2nc(CSc3nnc(C)n4c3cc3sccc34)c(C)o2)cc1`, the “activity change, negative = inhibition” value is inactive: -12.8%.

On to `Oc1ccccc1-c1nc2ccc(Cl)cn2c1Nc1ccc2c(c1)OCCO2`, for which the “activity change, negative = inhibition” value is inactive: -6.39%. For the compound `CCS(=O)(=O)N1CCc2cc(C(=O)Nc3cccc(NC(C)=O)c3)ccc21`, the “activity change, negative = inhibition” value was inactive: 4.01%. As for `COc1ccc(-c2ccc(=O)n(CC(=O)Nc3ccccc3C(F)(F)F)n2)cc1`, the figure is inactive: 19.9%; as for `Cc1ccc(C2c3[nH]c4ccccc4c3CCN2C(=O)CSc2ccccc2)cc1` (stereo not drawn), inactive: -29.9%; as for `Cc1ccccc1OCC(=O)Nc1nnc(S(=O)(=O)N2CCCCCC2)s1`, inactive: -31.3%. With `CCc1nn2c(=O)cc(COC(=O)c3ccccc3NC(=O)c3ccc(C(C)(C)C)cc3)nc2s1`, the “activity change, negative = inhibition” value was inactive: 3.25%. In the case of `c1coc(CNc2ncnc3nc[nH]c23)c1`, the “activity change, negative = inhibition” value was inactive: -9.57%. Regarding `Cc1ccc(-n2c(-c3cccc(C)c3)nc3c(cnn3-c3ccccc3)c2=O)cc1`, the “activity change, negative = inhibition” value was inactive: -0.413%.

As to `CN(C)CCCOC1(Cc2ccccc2)CCCCCC1`, the “activity change, negative = inhibition” value is inactive: -4.88%. As for `O=C(CCCn1c(=O)[nH]c2ccccc2c1=O)NCc1ccccc1Cl`, the figure is inactive: 4.37%; as for `COc1cccc(NC(=O)CSc2nc3ccc(NC(=O)c4ccco4)cc3s2)c1`, inactive: -6.61%.

Consider `CCc1nn(CC(=O)NCCCOC)c(=O)c2cc3occc3n12`, for which the “activity change, negative = inhibition” value was inactive: -12.4%.

As to `CCCN(CCC)CCCNC(=O)Cn1cnc2onc(-c3ccc(F)cc3)c2c1=O`, the “activity change, negative = inhibition” value was inactive: -6.34%. On to `O=C(Cn1cnc2c(nc3n2CCCCC3)c1=O)Nc1ccc(F)cc1`, for which the “activity change, negative = inhibition” value is inactive: -8.09%. Next, `O=C(CN1C(=O)C(c2ccc(F)cc2)=NC12CCCCCC2)Nc1ccc(F)c(Cl)c1`: inactive: -2.45%.

On to `COc1ccccc1NC(=O)Cn1c(=O)n(Cc2ccco2)c(=O)c2oc3ccccc3c21`, for which the “activity change, negative = inhibition” value is inactive: -11%.

Take `CCC(=O)NC1CC(=O)N(c2ccc3c(c2)OCCO3)C1` (stereo not drawn): the “activity change, negative = inhibition” value is inactive: 5.45%. As for `Cc1ccc2c(=O)cc(C(=O)Nc3c(C)n(C)n(-c4ccccc4)c3=O)oc2c1C`, the figure is inactive: -6.96% [at 11.5 µM]; as for `COC(=O)C(C)Sc1nnc2cc(C)c3cc(C)cc(C)c3n12` (stereo not drawn), inactive: -23.6%; as for `CN(C(=O)c1nc(-c2cccc(F)c2)n2c1CCCCC2)c1ccccc1F`, inactive: -13.1%. For `COc1cc(C2c3c(-c4ccccc4O)n[nH]c3C(=O)N2Cc2ccncc2)ccc1O` (stereo not drawn), the “activity change, negative = inhibition” value was inactive: -8.62%.

`COc1c(C)c2c(c(O)c1CC=C(C)CCC(=O)OCCN1CCOCC1)C(=O)OC2`: the “activity change, negative = inhibition” value is inactive: -11.8%.

As for `Cc1ccccc1NC(=O)c1ccccc1NC(=O)c1ccccc1Cl`, the “activity change, negative = inhibition” value is inactive: 12.8%. On to `CCc1ccc(NC(=O)CSc2ccc3nnc(CCNS(=O)(=O)c4ccc(OC)cc4)n3n2)cc1`, for which the “activity change, negative = inhibition” value is inactive: -0.508%.

Take `CCc1ccc(NC(=O)C2CCN(c3cc(C)nc4c(-c5ccc(Cl)cc5)c(C)nn34)CC2)cc1`: the “activity change, negative = inhibition” value was inactive: 14.5%. For `Cc1nc2ccc(S(=O)(=O)CCC(=O)Nc3ccc(F)cc3C)cc2s1`, the “activity change, negative = inhibition” value is inactive: -11.8%.

As to `CC(C)c1ccc(NC(=O)CCCc2nc(-c3ccc(Cl)cc3)no2)cc1`, the “activity change, negative = inhibition” value was inactive: -0.0594%. Regarding `COc1cc(Cl)c(NC(=O)C2CCN(S(=O)(=O)c3c(C)noc3/C=C/c3ccccc3F)CC2)c(OC)c1`, the “activity change, negative = inhibition” value was inactive: -19.1%. As for `Cc1ccc(C2=Nc3ccccc3NC(c3ccncc3)=N2)cc1`, the figure is inactive: -23.6%.
